Laboratory results published in PubChem BioAssay AID485281 (National Center for Advancing Translational Sciences (NCATS), 2010).
Where “and” joins values, the source holds several entries; their conditions need not be identical. Equal values may be shown once. The whole screen tested about 350,000 compounds, of which about 260 (0.074%) were called active. This list was built around the results that the source calls inconclusive (neither active nor inactive); the mix of calls is not that of the screen. The call rests on the fitted dose curve; in most records, active means well fitted inhibition curve with a large enough effect; inconclusive means small, poorly fitted or top-dose-only effect; inactive means no such curve, though single readings can be large or run the other way. Potencies beside an inconclusive call are fits to weak or partial responses and may not hold up.

What follows are molecules tested against Ferritin light chain (Equus caballus) (UniProt P02791) (assay: qHTS Assay for Identification of Novel General Anesthetics). Settings: apoferritin/1-aminoanthracene competitive binding, fluorescence; series mostly up to 77.5 µM.
Summary of the method: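 Read-out: endpoint 1-AMA fluorescence, excitation 380 nm and emission 535 nm, after compounds sit 10 min at room temperature with 10 uM horse-spleen apoferritin in 50% saturated 1-AMA/PBS. Values come from four-parameter Hill fits.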
Further: nearly all actives have a fitted effect of over 20% in size.
Potency means the concentration at half of the fitted maximal effect; tags describe the fitted curve by direction and shape.

UniProt P02791, sequence (P02791 whole entry, looked up): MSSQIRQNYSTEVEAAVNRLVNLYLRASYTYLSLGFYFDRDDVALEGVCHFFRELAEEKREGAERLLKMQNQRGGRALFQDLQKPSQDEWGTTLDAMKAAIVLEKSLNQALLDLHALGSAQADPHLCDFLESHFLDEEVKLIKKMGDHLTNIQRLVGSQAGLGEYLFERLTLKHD

Row | Compound | Potency
1 | O=C(Nc1cccn(Cc2ccc(F)cc2)c1=O)NC1CCCCC1 | inconclusive: 22.4 µM [inhibitor, partial curve]
2 | Cc1cc(C)cc(NC(=S)/N=C(\N)Nc2nc(C)c3ccccc3n2)c1 | inactive
3 | Cc1sc2nc(C(C)C)nc(SCC(=O)N3CCN(C(=O)c4ccco4)CC3)c2c1C | inconclusive: 20 µM [inhibitor, partial curve]
4 | CCN(Cc1ccncc1)C(=O)CCc1nnc(CCC2CCCCC2)o1 | inconclusive: 22.4 µM [inhibitor, partial curve]
5 | CCC(CC)Nc1ccc(C(CC(N)=O)NC(=O)c2ccccc2)cc1[N+](=O)[O-] (stereo unspecified) | inconclusive: 31.6 µM [inhibitor, partial curve]
6 | COCCNC(=O)Nc1cc(C(=O)NCc2ccc(C(C)C)cc2)ccc1N1CCCC1 | inconclusive: 35.5 µM [inhibitor, single point]
7 | COc1cccc(CC2(CO)CCCN(Cc3[nH]c4ccc(C)cc4c3C)C2)c1 (stereo unspecified) | inconclusive: 17.8 µM [inhibitor, partial curve]
8 | CCOc1ccccc1C(=O)N(C)Cc1cc2cc(OC)ccc2[nH]c1=O | inactive
9 | CCOC(=O)c1cccc(NC(=O)c2cnc3ccccc3n2)c1 | inconclusive: 35.5 µM [inhibitor, partial curve]
10 | O=C(N/N=C/c1cccc(O)c1)c1ccc(COc2ccc3c(c2)CCC3)o1 | inconclusive: 17.8 µM [inhibitor, partial curve]
11 | COc1ccc2c(c1OC)C(=O)N(c1ccc(F)cc1)C2 | inactive
12 | C=CCCCCCCCCc1nc(=S)[nH][nH]1 | inconclusive: 35.5 µM [inhibitor, partial curve]
13 | COC(=O)c1sccc1NC(=O)CSc1ccccc1NS(=O)(=O)c1ccc(Cl)cc1 | inconclusive: 3.98 µM [inhibitor, full curve, poor fit]
14 | CCn1c(CNc2ccccc2Cl)nnc1SCCN1CCCCC1 | inconclusive: 28.2 µM [inhibitor, partial curve]
15 | c1csc(Cc2nn3c(-c4n[nH]c5c4CCC5)nnc3s2)c1 | inconclusive: 14.1 µM [inhibitor, partial curve]
16 | CC(C)(C)/C(COc1ccccc1[N+](=O)[O-])=N/O | inconclusive: 39.8 µM [inhibitor, single point]
17 | O=C(NC1CCCC1)c1ccc(CSc2nc3ccncc3n2Cc2cccc(F)c2)cc1 | inactive
18 | Cc1cccc(NS(=O)(=O)c2cc3c(cc2C)n(C)c(=O)c(=O)n3C)c1 | inconclusive: 35.5 µM [inhibitor, partial curve]
19 | O=C1c2ccccc2C(=O)C1c1ccccc1 | inconclusive: 22.4 µM [inhibitor, partial curve]
20 | CCn1c(NCc2cc(Cl)ccc2O)nc2ccccc21 | inconclusive: 50.1 µM [inhibitor, single point]
21 | CCOC(=O)C1=C(N)Oc2cc(O)ccc2C1c1ccc(F)cc1F (stereo unspecified) | inconclusive: 31.6 µM [inhibitor, single point]

Row | Compound | Potency
22 | O=C(COc1ccccc1Cl)OCc1cc(=O)n2nc(C3CCCCC3)sc2n1 | inconclusive: 15.8 µM [inhibitor, partial curve]
23 | COC(=O)c1cn(NC(=O)C2CCC(C(C)(C)C)CC2)c(=O)c2ccccc12 (stereo unspecified) | inconclusive: 31.6 µM [inhibitor, partial curve]
24 | CC(=O)c1ccccc1OCCCN1CCCCC1 | inactive
25 | CCc1ccc(C(=O)c2cnc3ccc(F)cc3c2S(=O)(=O)c2ccccc2)cc1 | inactive
26 | NC(=O)NC(=O)CSc1ccccc1 | inconclusive: 25.1 µM [inhibitor, partial curve]
27 | COc1ccc2nc(NC(=O)CSc3nnc(-c4ccoc4C)n3C)sc2c1 | inconclusive: 22.4 µM [inhibitor, partial curve]
28 | CC(=O)c1ccc(NC(=O)CC2S/C(=N/N=C3CCCCCC3)NC2=O)cc1 (stereo unspecified) | inconclusive: 17.8 µM [inhibitor, partial curve]
29 | COc1cccc(N2C(=O)C(CC(=O)Nc3ccccc3)N(C3CCCCC3)C2=O)c1 (stereo unspecified) | inconclusive: 35.5 µM [inhibitor, single point]
30 | CC1(C)C=Cc2c(c3c(c4c(=O)c(-c5ccc(O)cc5)coc24)OC(C)(C)CC3)O1 | inconclusive: 8.91 µM [inhibitor, partial curve]
31 | O=C(CN1C(=O)S/C(=C\c2ccc(Cl)cc2)C1=O)NCCCn1ccnc1 | inconclusive: 39.8 µM [inhibitor, partial curve]
32 | Cc1ccc(S(=O)(=O)Nc2cc(=O)[nH]c(SCc3ccccc3Cl)n2)cc1 | inconclusive: 50.1 µM [inhibitor, single point]
33 | CCc1cc(=O)oc2cc(OCC=C(C)C)ccc12 | inconclusive: 31.6 µM [inhibitor, single point]
34 | Cc1cc2[nH]c(=O)c(=O)[nH]c2cc1S(=O)(=O)N1CCN(c2cccc(C(F)(F)F)c2)CC1 | inconclusive: 25.1 µM [inhibitor, partial curve] and inconclusive: 11.2 µM [inhibitor, partial curve, poor fit]
35 | COc1ccc(NC(=O)Cc2ccc(Cl)cc2)cc1NC(=O)c1ccco1 | inconclusive: 14.1 µM [inhibitor, partial curve]
36 | O=C(c1cccc(F)c1)N1CCc2ccccc21 | inconclusive: 28.2 µM [inhibitor, partial curve]
37 | CN(C)c1ccc(/C=C/c2nc3ccccc3s2)cc1 | inactive
38 | O=C(CCCOc1ccccc1)N1CCN(c2ccccc2)CC1 | inactive
39 | Cc1cc(C(=O)CN2C(=O)C(=O)N(CC(C)C)C2=O)c(C)n1-c1ccccc1F | inconclusive: 14.1 µM [inhibitor, partial curve]
40 | O=C(COc1ccc(Cl)cc1)NCCC1=CCCCC1 | inconclusive: 28.2 µM [inhibitor, partial curve]
41 | Cc1ccc(N(Cc2ccc([N+](=O)[O-])cc2)C(=O)c2ccco2)cc1C | inconclusive: 35.5 µM [inhibitor, single point]
